# Measured values published in publication PMC4336329 (PLoS ONE, 2015).
# Hit rate of the full screen: of about 310,000 compounds, about 14,000 (4.5%) showed an effect of 50% or more. The effect is printed as a negative number. The list shows a part of the results.
# Target: human ether-à-go-go-related gene (hERG) potassium channel (human, UniProt Q12809)
# Test: primary screen, population patch clamp on CHO cells stably expressing hERG
# 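Also: peak tail current of the secondary pulse compared with the same well before compound.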
# Chain of human ether-à-go-go-related gene (hERG) potassium channel (Q12809 whole entry, looked up): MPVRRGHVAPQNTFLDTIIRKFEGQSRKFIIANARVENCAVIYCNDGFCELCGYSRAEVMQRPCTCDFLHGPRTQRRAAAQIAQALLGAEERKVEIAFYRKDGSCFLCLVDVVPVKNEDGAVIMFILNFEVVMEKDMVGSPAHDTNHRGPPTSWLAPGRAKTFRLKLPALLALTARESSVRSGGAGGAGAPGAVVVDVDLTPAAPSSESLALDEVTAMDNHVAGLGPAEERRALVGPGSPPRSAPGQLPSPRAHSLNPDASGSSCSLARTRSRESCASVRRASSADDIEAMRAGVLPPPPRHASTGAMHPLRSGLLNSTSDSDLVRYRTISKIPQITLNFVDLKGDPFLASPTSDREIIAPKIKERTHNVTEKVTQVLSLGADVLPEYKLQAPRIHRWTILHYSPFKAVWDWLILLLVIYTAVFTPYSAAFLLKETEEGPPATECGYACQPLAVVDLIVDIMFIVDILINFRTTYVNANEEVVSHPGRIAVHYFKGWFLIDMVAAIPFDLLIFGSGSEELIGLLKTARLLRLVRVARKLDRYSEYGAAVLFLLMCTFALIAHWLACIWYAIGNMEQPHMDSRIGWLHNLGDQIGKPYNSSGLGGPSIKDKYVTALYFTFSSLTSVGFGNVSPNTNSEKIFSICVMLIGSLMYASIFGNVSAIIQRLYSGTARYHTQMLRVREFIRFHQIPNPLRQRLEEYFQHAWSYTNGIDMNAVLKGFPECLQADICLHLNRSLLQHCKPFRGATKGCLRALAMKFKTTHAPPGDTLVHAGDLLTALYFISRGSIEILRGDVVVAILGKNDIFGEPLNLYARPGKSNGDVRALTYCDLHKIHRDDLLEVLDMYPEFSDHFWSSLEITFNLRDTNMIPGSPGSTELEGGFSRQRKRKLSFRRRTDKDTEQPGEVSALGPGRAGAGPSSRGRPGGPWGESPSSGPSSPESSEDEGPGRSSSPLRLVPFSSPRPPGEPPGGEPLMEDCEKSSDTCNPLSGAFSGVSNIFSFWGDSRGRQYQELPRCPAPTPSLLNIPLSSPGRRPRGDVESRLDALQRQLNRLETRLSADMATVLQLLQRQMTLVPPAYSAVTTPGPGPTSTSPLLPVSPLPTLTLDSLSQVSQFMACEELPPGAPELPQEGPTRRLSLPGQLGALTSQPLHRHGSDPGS
row,Compound,"hERG current change (%, negative = inhibition) at 10uM [%]"
1,COc1ccc(C(=O)NCCn2ccc3ccccc32)c(OC)c1,-12.5
2,CCOC(=O)C(N)CSC1CC(=O)N(c2ccc(OCC)cc2)C1=O.Cl (centres unmarked),-3.53
3,COc1ccc(OC)c(/C=N/NC(=O)CC(=O)NCc2ccccc2)c1,1.66
4,CCOC(=O)CC/C(=N\NC(N)=O)c1ccc(OC)c(Cl)c1,-14.9
5,O=C(CSc1nc(-c2ccccc2)cs1)Nc1ccccc1[N+](=O)[O-],19.4
6,O=C(Nc1ccncc1)C1CC(=O)N(c2ccc(F)cc2)C1 (centres unmarked),9.63
7,Cc1ccc(S(=O)(=O)N2CCC(C(=O)OC(C)C(=O)N3CCOCC3)CC2)cc1 (centres unmarked),-0.985
8,Cc1cc(NC(=O)c2cc(C(C)C)on2)no1,-5.74
9,CCc1noc(C)c1C(=O)Nc1cc(S(=O)(=O)N(CC)CC)ccc1N1CCCC1,-33.2
10,Cc1c(-c2ccccc2)[nH]n2c(=O)c3c(nc12)CCCC3,0.363
11,O=C(COc1ccccc1)Nc1ccc(CN2CCCCC2)cc1,-26.9
12,CCN(c1ccccc1)c1nc2nonc2nc1NCCO,14.3
13,CCOc1ccc(C(=O)NCC(=O)OCC(=O)Nc2cccc(S(=O)(=O)N3CCCC3)c2)cc1,-15.7
14,O=C(COC(=O)/C=C/c1ccc([N+](=O)[O-])cc1)NC(c1ccccc1)c1ccccc1,-18.4
15,COc1ccccc1N(C)S(=O)(=O)c1ccc(C(=O)NC(C)c2ccccc2)cc1 (centres unmarked),-43.7
16,CC(C(=O)Nc1ccccc1-c1ccccc1)N1CCN(C(=O)c2ccccc2)CC1 (centres unmarked),-66.9
17,COc1ccc(C2=C(Nc3ccc(F)cc3)c3ccccc3C2=O)cc1,12.8
18,O=C(Nc1ccc(F)cc1)C1CCCCC1,-3.1
19,CCOc1cc(S(=O)(=O)Nc2ncn[nH]2)ccc1Br,14.4

row,Compound,"hERG current change (%, negative = inhibition) at 10uM [%]"
1,NC(N)=Nc1nc2cc([N+](=O)[O-])ccc2o1,27.6
2,CCCCOC(=O)n1c(=S)oc2cc(Cl)ccc21,17.7
3,COc1cc(NC(=O)CN(C)S(=O)(=O)c2ccc3nc(C)sc3c2)cc(OC)c1,23.8
4,COc1cc(CNc2ccc3[nH]c(=O)[nH]c3c2)cc(Br)c1OCc1ccc(F)cc1,22.7
5,CCC1=Nc2cc(C(=O)N3CCC4(CC3)OCCO4)ccc2Sc2ccc(C)cc21,-7.16
6,CC(C)(C)c1ccc(-c2noc(CCC(=O)Nc3cccnc3)n2)cc1,6.82
7,COc1ccc(C(=O)COC(=O)c2cncc(Br)c2)cc1,1.2
8,O=C(CSc1ccc(Cl)cc1)NC(=O)NCc1ccco1,3.87
9,COc1cc(/C=N/NC(=O)C2c3ccccc3Oc3ccccc32)ccc1O,12.4
10,CN(C)S(=O)(=O)c1cc(NC(=O)CN2CCOCC2)ccc1Cl,17.7
11,Cc1ccsc1/C=N/NC(=O)C(O)c1ccccc1 (centres unmarked),15.2
12,CN(C)CCCNC(=S)NCCNc1nc2cc3c(cc2cc1C#N)OCO3,-29.9
13,CCOC(=O)c1sc(NC(=O)C(CC)Sc2nnc3c4ccccc4n(CC)c3n2)nc1C (centres unmarked),-59.4
14,O=C1CN(C(=O)COc2ccccc2F)c2ccccc2N1,-1.54
15,Nc1cc(C(=O)N2CCCC2)cc(C(=O)N2CCCC2)c1,11.9
16,N=c1c(C(=O)NCC2CCCO2)cc2c(=O)n3ccccc3nc2n1C1CCCCC1 (centres unmarked),-77.3
17,CC(=O)c1c(C)nc(-c2ccc(OCC(=O)Nc3ccc(F)cc3)cc2)n1O,-5.61
18,CN(C)C(=O)COC(=O)c1cccc(S(=O)(=O)Nc2ccc(OCc3ccccc3)cc2)c1,7.14
19,C=CCSc1nc2[nH]ncc2c(=O)[nH]1,10.6

row,Compound,"hERG current change (%, negative = inhibition) at 10uM [%]"
1,COc1ccc(NC(=O)CN(C)CC(=O)Nc2sc3c(c2C#N)CCC3)cc1,0.0459
2,COc1ccccc1N1CC(O)=C(c2nc3ccccc3c(=O)[nH]2)C1=N,-29.9
3,O=C(Nc1ccccc1)c1cccnc1N1CCCC1,-13.5
4,CCN(CCCNC(=O)C1CCC(=O)N1C(C)C)c1cccc(C)c1 (centres unmarked),-13.5
5,CCCN(CCC)C(=O)CP(=O)(c1ccccc1)c1ccccc1,-6.96
6,COCCCN1C(=O)C(=O)/C(=C(/O)c2ccc(OC)cc2)C1c1ccc(O)c(OC)c1 (centres unmarked),19.2
7,Cc1ccc(S(=O)(=O)N2CCN(c3c([N+](=O)[O-])cc(C(F)(F)F)cc3[N+](=O)[O-])CC2)cc1,1.54
8,COc1ccc(Nc2cc(C)nc3ccc(OC)cc23)cc1,-52.3
9,COc1ccc(-c2nn(-c3ccccc3)cc2/C=N/NC(=O)c2ccc(Br)o2)cc1,-0.138
10,C=CCn1c(=S)[nH]c2cc(C(=O)Nc3ccc(OC)c(OC)c3)ccc2c1=O,19.7
11,N#Cc1c(NC(=O)/C=C/C(=O)O)sc2c1CCN(Cc1ccccc1)C2,6.58
12,Nc1n[nH]c(N)c1N=Nc1ccc(Cl)cc1Cl,19.1
13,Cc1ccc(S(=O)(=O)N2CCOCC2)cc1C(=O)NC1CCCCC1,6.61
14,N#Cc1ccc(-c2ccc(F)cc2)nc1Oc1ccccc1,1.49
15,O=[N+]([O-])c1ccc2c(c1)nc1n2CCSC1,-19.2
16,COC(=O)[C@H](Cc1c[nH]c2ccccc12)NC(=O)NCc1ccc(OC)c(OC)c1,8.51
17,CN(C)c1ccc(/C=N/NC(=O)C(=O)/C=C2\NC3(CCCC3)Cc3ccccc32)cc1,20.3
18,Nc1ncc2[nH]cnc2n1.O=[N+]([O-])O,9.53
